Measured values published in paper PMC12820563.
The list shows a part of the results. The list includes weakly bound sequences.

target: T1, MBP-FoxP3dN (UniProt Q99JB6); assay: PD-seq (MBP pull-down with sequencing); conditions: 20 mM Tris-HCl pH 7.5, 100 mM NaCl, 1.5 mM MgCl2, 0.4 uM protein, 0.1 uM dsDNA library, 30 min, room temperature, amylose pull-down; high values mean tight binding; double strand, one strand shown
T1 sequence: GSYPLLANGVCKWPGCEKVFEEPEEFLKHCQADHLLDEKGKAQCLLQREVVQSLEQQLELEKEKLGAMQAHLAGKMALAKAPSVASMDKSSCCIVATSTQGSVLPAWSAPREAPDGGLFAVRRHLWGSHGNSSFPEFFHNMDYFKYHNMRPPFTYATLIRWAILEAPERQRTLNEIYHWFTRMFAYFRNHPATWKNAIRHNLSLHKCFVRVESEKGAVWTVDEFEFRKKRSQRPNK

| Sequence | binding signal (RPM ratio (pull-down/input)) |
| --- | --- |
| GATGATTGTTCTCCCAGCTGATGAATTCTGAATGTCGAGTAAACAAATTTTCCTAATCTTTCTGTTCAAGCGCCATCTAC | 0.888 |
| GATGATTGTTCTCCCAGCTGATGAATTAAGCTGTTCGAGTAAACAAATTTTCCTAATCTTTCTGTTCAAGCGCCATCTAC | 1.12 |
| GATGATTGTTCTCCCAGCTGATGAATTCGACCCTTCGAGTAAACAAATTTTCCTAATCTTTCTGTTCAAGCGCCATCTAC | 0.384 |
| GATGATTGTTCTCCCAGCTGATGAATTACTGTTTTCGAGTAAACAAATTTTCCTAATCTTTCTGTTCAAGCGCCATCTAC | 1.17 |
| GATGATTGTTCTCCCAGCTGATGAATTCTAAGACTCGAGTAAACAAATTTTCCTAATCTTTCTGTTCAAGCGCCATCTAC | 0.231 |
| GATGATTGTTCTCCCAGCTGATGAATTCAATTACTCGAGTAAACAAATTTTCCTAATCTTTCTGTTCAAGCGCCATCTAC | 3.27 |
| GATGATTGTTCTCCCAGCTGATGAATTAGCGCTATCGAGTAAACAAATTTTCCTAATCTTTCTGTTCAAGCGCCATCTAC | 0.84 |
| GATGATTGTTCTCCCAGCTGATGAATTCTATTGTTCGAGTAAACAAATTTTCCTAATCTTTCTGTTCAAGCGCCATCTAC | 5.2 |
| GATGATTGTTCTCCCAGCTGATGAATTTGTAAGCTCGAGTAAACAAATTTTCCTAATCTTTCTGTTCAAGCGCCATCTAC | 2.54 |
| GATGATTGTTCTCCCAGCTGATGAATTCGAGTGATCGAGTAAACAAATTTTCCTAATCTTTCTGTTCAAGCGCCATCTAC | 0.449 |
| GATGATTGTTCTCCCAGCTGATGAATTAGCCTCATCGAGTAAACAAATTTTCCTAATCTTTCTGTTCAAGCGCCATCTAC | 0.954 |
| GATGATTGTTCTCCCAGCTGATGAATTGGAGCCTTCGAGTAAACAAATTTTCCTAATCTTTCTGTTCAAGCGCCATCTAC | 1.39 |
| GATGATTGTTCTCCCAGCTGATGAATTCGGCATATCGAGTAAACAAATTTTCCTAATCTTTCTGTTCAAGCGCCATCTAC | 2.53 |
| GATGATTGTTCTCCCAGCTGATGAATTGCTTGTCTCGAGTAAACAAATTTTCCTAATCTTTCTGTTCAAGCGCCATCTAC | 1.71 |
| GATGATTGTTCTCCCAGCTGATGAATTGTGATAGTCGAGTAAACAAATTTTCCTAATCTTTCTGTTCAAGCGCCATCTAC | 1.6 |
| GATGATTGTTCTCCCAGCTGATGAATTCATGAGCTCGAGTAAACAAATTTTCCTAATCTTTCTGTTCAAGCGCCATCTAC | 0.404 |
| GATGATTGTTCTCCCAGCTGATGAATTTCTACACTCGAGTAAACAAATTTTCCTAATCTTTCTGTTCAAGCGCCATCTAC | 0.29 |
| GATGATTGTTCTCCCAGCTGATGAATTTTCGAAATCGAGTAAACAAATTTTCCTAATCTTTCTGTTCAAGCGCCATCTAC | 0.331 |
| GATGATTGTTCTCCCAGCTGATGAATTTCGCATGTCGAGTAAACAAATTTTCCTAATCTTTCTGTTCAAGCGCCATCTAC | 5.75 |
| GATGATTGTTCTCCCAGCTGATGAATTCACACTGTCGAGTAAACAAATTTTCCTAATCTTTCTGTTCAAGCGCCATCTAC | 0.4 |
| GATGATTGTTCTCCCAGCTGATGAATTCTTTGCATCGAGTAAACAAATTTTCCTAATCTTTCTGTTCAAGCGCCATCTAC | 0.99 |

| Sequence | binding signal (RPM ratio (pull-down/input)) |
| --- | --- |
| GATGATTGTTCTCCCAGCTGATGAATTCAACACGTCGAGTAAACAAATTTTCCTAATCTTTCTGTTCAAGCGCCATCTAC | 0.477 |
| GATGATTGTTCTCCCAGCTGATGAATTCCTAATGTCGAGTAAACAAATTTTCCTAATCTTTCTGTTCAAGCGCCATCTAC | 0.337 |
| GATGATTGTTCTCCCAGCTGATGAATTCGGGATGTCGAGTAAACAAATTTTCCTAATCTTTCTGTTCAAGCGCCATCTAC | 0.394 |
| GATGATTGTTCTCCCAGCTGATGAATTATACCAGTCGAGTAAACAAATTTTCCTAATCTTTCTGTTCAAGCGCCATCTAC | 0.351 |
| GATGATTGTTCTCCCAGCTGATGAATTATCAAGATCGAGTAAACAAATTTTCCTAATCTTTCTGTTCAAGCGCCATCTAC | 0.227 |
| GATGATTGTTCTCCCAGCTGATGAATTCGACGTGTCGAGTAAACAAATTTTCCTAATCTTTCTGTTCAAGCGCCATCTAC | 0.789 |
| GATGATTGTTCTCCCAGCTGATGAATTGCTCAAATCGAGTAAACAAATTTTCCTAATCTTTCTGTTCAAGCGCCATCTAC | 0.408 |
| GATGATTGTTCTCCCAGCTGATGAATTCCACTTCTCGAGTAAACAAATTTTCCTAATCTTTCTGTTCAAGCGCCATCTAC | 0.439 |
| GATGATTGTTCTCCCAGCTGATGAATTTATTCCATCGAGTAAACAAATTTTCCTAATCTTTCTGTTCAAGCGCCATCTAC | 0.53 |
| GATGATTGTTCTCCCAGCTGATGAATTCTTAAGCTCGAGTAAACAAATTTTCCTAATCTTTCTGTTCAAGCGCCATCTAC | 0.218 |
| GATGATTGTTCTCCCAGCTGATGAATTGATAATATCGAGTAAACAAATTTTCCTAATCTTTCTGTTCAAGCGCCATCTAC | 0.753 |
| GATGATTGTTCTCCCAGCTGATGAATTTACCCTATCGAGTAAACAAATTTTCCTAATCTTTCTGTTCAAGCGCCATCTAC | 0.52 |
| GATGATTGTTCTCCCAGCTGATGAATTATTTGAATCGAGTAAACAAATTTTCCTAATCTTTCTGTTCAAGCGCCATCTAC | 0.377 |
| GATGATTGTTCTCCCAGCTGATGAATTACGGTGATCGAGTAAACAAATTTTCCTAATCTTTCTGTTCAAGCGCCATCTAC | 0.601 |
| GATGATTGTTCTCCCAGCTGATGAATTTTTGAGCTCGAGTAAACAAATTTTCCTAATCTTTCTGTTCAAGCGCCATCTAC | 0.209 |
| GATGATTGTTCTCCCAGCTGATGAATTGCCTAAGTCGAGTAAACAAATTTTCCTAATCTTTCTGTTCAAGCGCCATCTAC | 0.387 |
| GATGATTGTTCTCCCAGCTGATGAATTGAGGCCATCGAGTAAACAAATTTTCCTAATCTTTCTGTTCAAGCGCCATCTAC | 1.6 |
| GATGATTGTTCTCCCAGCTGATGAATTGACTGATTCGAGTAAACAAATTTTCCTAATCTTTCTGTTCAAGCGCCATCTAC | 0.374 |
| GATGATTGTTCTCCCAGCTGATGAATTGCGTTCTTCGAGTAAACAAATTTTCCTAATCTTTCTGTTCAAGCGCCATCTAC | 1.3 |
| GATGATTGTTCTCCCAGCTGATGAATTCAATGCGTCGAGTAAACAAATTTTCCTAATCTTTCTGTTCAAGCGCCATCTAC | 1.1 |
| GATGATTGTTCTCCCAGCTGATGAATTCTGCACATCGAGTAAACAAATTTTCCTAATCTTTCTGTTCAAGCGCCATCTAC | 1.2 |

| Sequence | binding signal (RPM ratio (pull-down/input)) |
| --- | --- |
| GATGATTGTTCTCCCAGCTGATGAATTAAGCCTTTCGAGTAAACAAATTTTCCTAATCTTTCTGTTCAAGCGCCATCTAC | 4.34 |
| GATGATTGTTCTCCCAGCTGATGAATTGGGTCTATCGAGTAAACAAATTTTCCTAATCTTTCTGTTCAAGCGCCATCTAC | 0.456 |
| GATGATTGTTCTCCCAGCTGATGAATTAGAACCTTCGAGTAAACAAATTTTCCTAATCTTTCTGTTCAAGCGCCATCTAC | 0.247 |
| GATGATTGTTCTCCCAGCTGATGAATTGTGGGACTCGAGTAAACAAATTTTCCTAATCTTTCTGTTCAAGCGCCATCTAC | 0.586 |
| GATGATTGTTCTCCCAGCTGATGAATTTACAATGTCGAGTAAACAAATTTTCCTAATCTTTCTGTTCAAGCGCCATCTAC | 0.563 |
| GATGATTGTTCTCCCAGCTGATGAATTCTAACGGTCGAGTAAACAAATTTTCCTAATCTTTCTGTTCAAGCGCCATCTAC | 0.288 |
| GATGATTGTTCTCCCAGCTGATGAATTTATACGCTCGAGTAAACAAATTTTCCTAATCTTTCTGTTCAAGCGCCATCTAC | 0.739 |
| GATGATTGTTCTCCCAGCTGATGAATTCCGGAGTTCGAGTAAACAAATTTTCCTAATCTTTCTGTTCAAGCGCCATCTAC | 0.329 |
| GATGATTGTTCTCCCAGCTGATGAATTGTAAAAATCGAGTAAACAAATTTTCCTAATCTTTCTGTTCAAGCGCCATCTAC | 0.222 |
| GATGATTGTTCTCCCAGCTGATGAATTGGTATCTTCGAGTAAACAAATTTTCCTAATCTTTCTGTTCAAGCGCCATCTAC | 1.23 |
| GATGATTGTTCTCCCAGCTGATGAATTTTCCATTTCGAGTAAACAAATTTTCCTAATCTTTCTGTTCAAGCGCCATCTAC | 0.295 |
| GATGATTGTTCTCCCAGCTGATGAATTGCCGTCCTCGAGTAAACAAATTTTCCTAATCTTTCTGTTCAAGCGCCATCTAC | 0.621 |
| GATGATTGTTCTCCCAGCTGATGAATTCGTCAGCTCGAGTAAACAAATTTTCCTAATCTTTCTGTTCAAGCGCCATCTAC | 0.507 |
| GATGATTGTTCTCCCAGCTGATGAATTCAGCGACTCGAGTAAACAAATTTTCCTAATCTTTCTGTTCAAGCGCCATCTAC | 1.51 |
| GATGATTGTTCTCCCAGCTGATGAATTATGTCGGTCGAGTAAACAAATTTTCCTAATCTTTCTGTTCAAGCGCCATCTAC | 0.673 |
| GATGATTGTTCTCCCAGCTGATGAATTCTGTGTGTCGAGTAAACAAATTTTCCTAATCTTTCTGTTCAAGCGCCATCTAC | 3.92 |
| GATGATTGTTCTCCCAGCTGATGAATTGTTCTGGTCGAGTAAACAAATTTTCCTAATCTTTCTGTTCAAGCGCCATCTAC | 0.274 |
| GATGATTGTTCTCCCAGCTGATGAATTTCGGCCATCGAGTAAACAAATTTTCCTAATCTTTCTGTTCAAGCGCCATCTAC | 1.2 |
| GATGATTGTTCTCCCAGCTGATGAATTGTATACATCGAGTAAACAAATTTTCCTAATCTTTCTGTTCAAGCGCCATCTAC | 5.87 |
| GATGATTGTTCTCCCAGCTGATGAATTGCACCGGTCGAGTAAACAAATTTTCCTAATCTTTCTGTTCAAGCGCCATCTAC | 0.58 |
| GATGATTGTTCTCCCAGCTGATGAATTCCATTTGTCGAGTAAACAAATTTTCCTAATCTTTCTGTTCAAGCGCCATCTAC | 1.53 |
